This is one part of the list.
The compounds below were run on S. aureus RN4220 (assay: growth inhibition call (relative growth <= 0.2)). Settings: 50 µM.

Growth inhibition call, inactive:
CN(C)C(=N)N=C(N)N
C[C@H]1CN([C@@H](C)CO)S(=O)(=O)c2ccc(-c3ccc(F)cc3)cc2O[C@H]1CN(C)S(C)(=O)=O
C[C@H](CO)N1C[C@H](C)[C@@H](CN(C)C(=O)CN2CCOCC2)Oc2ncc(-c3cncnc3)cc2C1=O
C[C@H](CO)N1C[C@H](C)[C@@H](CN(C)C(=O)Cc2ccccc2)OCCCC[C@H](C)Oc2ccc(NC(=O)Nc3ccc4c(c3)OCO4)cc2C1=O
COc1ccc(NC(=O)Nc2ccc3c(c2)CC(=O)N([C@H](C)CO)C[C@H](C)[C@@H](CN(C)Cc2ccc(C(F)(F)F)cc2)O3)cc1
